According to PMC6919601, “Identification of Plasmodium dipeptidyl aminopeptidase allosteric inhibitors by high throughput screening” (PLoS ONE, 2019):
Values joined by “and” are separate entries in the source; they are usually repeats but may differ in a detail not shown here. Equal values may be shown once. The campaign covered roughly 110,000 compounds. About 230 (0.21%) showed an effect of 50% or more. Some of the results follow.

Target: DPAP1 (Plasmodium falciparum, UniProt Q8IIJ9)
Assay: primary screen, percent inhibition; read by cleavage of a fluorogenic dipeptide substrate; higher = more effect of the substance
Design: species or system P. falciparum D10 trophozoite lysates; single well
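Note: 30 min substrate incubation versus DMSO and 10 µM JCP410 controls.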

Sequence of DPAP1 (Q8IIJ9 whole entry, looked up): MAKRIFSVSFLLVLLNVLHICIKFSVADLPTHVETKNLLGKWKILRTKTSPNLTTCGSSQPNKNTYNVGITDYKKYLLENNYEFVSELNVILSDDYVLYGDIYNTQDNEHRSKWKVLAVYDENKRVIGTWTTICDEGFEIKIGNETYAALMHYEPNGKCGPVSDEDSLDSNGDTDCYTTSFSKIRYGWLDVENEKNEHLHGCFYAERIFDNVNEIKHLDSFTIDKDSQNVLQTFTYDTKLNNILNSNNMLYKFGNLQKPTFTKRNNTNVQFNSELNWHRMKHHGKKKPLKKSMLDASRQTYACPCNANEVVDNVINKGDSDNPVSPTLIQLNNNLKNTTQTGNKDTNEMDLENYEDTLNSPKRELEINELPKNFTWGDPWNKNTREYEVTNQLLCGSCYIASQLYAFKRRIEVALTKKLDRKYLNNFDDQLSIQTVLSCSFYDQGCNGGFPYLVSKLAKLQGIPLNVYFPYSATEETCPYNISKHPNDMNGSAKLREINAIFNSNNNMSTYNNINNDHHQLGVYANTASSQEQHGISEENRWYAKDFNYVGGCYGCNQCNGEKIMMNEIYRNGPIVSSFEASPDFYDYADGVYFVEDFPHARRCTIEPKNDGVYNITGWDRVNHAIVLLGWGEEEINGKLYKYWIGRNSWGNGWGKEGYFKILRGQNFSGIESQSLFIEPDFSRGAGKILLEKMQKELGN

Structure (SMILES)	% Inhibition @ 10 uM
CSC(SC)=C(C(C)=O)C(=O)c1ccc(C)cc1	2.76%
CC(C)CCNC(=O)c1ccc(CS(=O)(=O)c2ccc(Br)cc2)o1	-1.28%
CC(NC(=O)CCc1nnc2n(CCc3ccccc3)c(=O)c3ccccc3n12)c1ccccc1 (centres unmarked)	-4.21%
CCSc1nnc2n(Cc3ccccc3)c3ccccc3n12	1.23%
O=C(c1cc2nc(-c3ccc(F)cc3)cc(C(F)(F)F)n2n1)N1CCOCC1	-0.795%
O=C(COc1ccc(Br)cc1)Nc1ccc(N2CCCC2)c(Cl)c1	-6.39%
COc1cccc(CNCc2cccn2-c2nnc(N3CCN(C4CCCCC4)CC3)s2)c1	3.28%
COC(=O)C1=C(C)N(C)C(=O)NC1c1cccc(F)c1 (centres unmarked)	-19.8%
CCCN1CCC(N[C@H]2CCCCNC2=O)CC1	-3.6%
COCCO/C(O)=C1/C(C)=NC2=C(C(=O)CCC2)C1c1ccccc1 (centres unmarked)	-5.23%
CCOc1ccc(NC=C2C(=O)N(C)C(=O)N(C)C2=O)cc1	-1.98%
COc1cccc(CNc2nc3ccccc3n2CCN2CCOCC2)c1O	3.38%
O=C(O)CC12CC3CC(C1)CC(n1ncc(N4CCC5(CC4)OCCO5)c(Cl)c1=O)(C3)C2	1.72%
Cc1nc2sc(C(=O)c3ccccc3)c(N)c2c(C)c1Cl	1.01%
CC(C)Cn1cc(NC(=O)NCCN(Cc2ccccc2)C(C)C)c2ccccc2c1=O	-10.2%
COC(=O)C1=CN(Cc2ccc(Cl)cc2)C=C(C(=O)OC)C1c1cccs1	-6.91%
Cc1[nH]nc2c1C(c1cc(O)c(Br)c(O)c1)C(C#N)=C(N)O2 (centres unmarked)	-2.54%
CN1CCN(CC(O)COc2ccccc2)CC1 (centres unmarked)	0.00178% and -1.7%
C=CCn1c(SCC2=C(C(=O)OCC)C(c3cc(C)ccc3C)NC(=O)N2)nnc1-c1ccco1 (centres unmarked)	-2.63%
COc1ccc(C2CC(C(F)(F)F)n3nc(C(=O)NCc4ccco4)c(Br)c3N2)cc1 (centres unmarked)	5.37%
CC(C)C(NC(=O)CN(c1ccc(F)cc1)S(=O)(=O)c1ccc2c(c1)OCCO2)C(C)C	-7.25%
Cc1nn(C(=O)/C=C/c2ccccc2)c(C)c1Sc1ccccc1	14.6%
Cc1nn(C(C)C(=O)NCc2ccccc2Cl)c(=O)c2c1sc1ccccc12 (centres unmarked)	-3.34%
O=C(CN1CCN(Cc2ccccc2Cl)C1=O)NCc1cccnc1	-4.16%
CCn1cc(C2C3=C(O)CCCC3=NC(C)=C2C(=O)Nc2ccc(Br)cn2)c(C)n1 (centres unmarked)	-4.41%
Oc1nc(-c2ccccc2)cc(-c2ccccc2)n1	-2.03%
